Among all 310,000 compounds or so, about 2,200 (0.71%) showed an effect of 50% or more. Effects have a minus sign here. The list shows a part of the results.
biological target: human ether-à-go-go-related gene (hERG) potassium channel (human, UniProt Q12809); assay: primary screen, population patch clamp on CHO cells stably expressing hERG
Sequence (Q12809 whole entry, looked up): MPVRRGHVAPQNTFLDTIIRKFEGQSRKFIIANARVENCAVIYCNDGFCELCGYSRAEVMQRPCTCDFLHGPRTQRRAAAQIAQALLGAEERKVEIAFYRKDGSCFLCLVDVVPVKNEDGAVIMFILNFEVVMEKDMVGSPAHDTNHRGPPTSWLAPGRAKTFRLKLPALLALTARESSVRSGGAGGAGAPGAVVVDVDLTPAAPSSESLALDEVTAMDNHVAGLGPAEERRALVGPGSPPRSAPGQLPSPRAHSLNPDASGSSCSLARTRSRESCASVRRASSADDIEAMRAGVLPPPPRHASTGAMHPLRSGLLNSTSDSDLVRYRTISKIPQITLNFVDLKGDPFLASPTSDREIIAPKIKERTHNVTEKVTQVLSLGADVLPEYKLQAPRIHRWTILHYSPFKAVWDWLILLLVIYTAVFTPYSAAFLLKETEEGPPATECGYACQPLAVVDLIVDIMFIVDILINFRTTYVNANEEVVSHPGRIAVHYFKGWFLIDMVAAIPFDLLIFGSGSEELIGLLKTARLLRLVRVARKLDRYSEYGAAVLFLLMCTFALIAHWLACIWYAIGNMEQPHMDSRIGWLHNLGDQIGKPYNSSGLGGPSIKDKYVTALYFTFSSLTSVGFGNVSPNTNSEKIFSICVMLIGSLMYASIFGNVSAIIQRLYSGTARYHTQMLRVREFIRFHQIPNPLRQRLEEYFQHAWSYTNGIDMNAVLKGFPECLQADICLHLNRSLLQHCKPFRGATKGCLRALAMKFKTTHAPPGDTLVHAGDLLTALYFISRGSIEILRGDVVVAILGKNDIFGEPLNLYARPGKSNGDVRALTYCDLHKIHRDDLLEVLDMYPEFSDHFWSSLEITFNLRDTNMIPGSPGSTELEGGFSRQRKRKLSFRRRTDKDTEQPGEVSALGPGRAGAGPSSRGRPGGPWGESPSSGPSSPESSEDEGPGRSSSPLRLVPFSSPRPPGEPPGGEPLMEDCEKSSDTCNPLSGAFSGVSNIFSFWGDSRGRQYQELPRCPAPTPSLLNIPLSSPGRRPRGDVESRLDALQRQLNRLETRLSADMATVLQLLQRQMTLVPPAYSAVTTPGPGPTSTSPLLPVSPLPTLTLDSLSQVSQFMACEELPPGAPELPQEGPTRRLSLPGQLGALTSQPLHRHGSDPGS

Compared with `CC1(C)Cc2c(sc3[nH]c(=O)n(CC(=O)NCC4CCCO4)c(=O)c23)CO1` (centres unmarked), `Cc1cc2nnc(SCC(=O)NCC3CCCO3)n2c2ccccc12` (centres unmarked) is higher in “hERG current change (%, negative = inhibition) at 1uM” value: 3.94% for the first, 10.6% for the second.

First: CC(=O)N1CCN(C(=O)c2ccc(S(=O)(=O)Nc3cccc(C(F)(F)F)c3)cc2)CC1
Second: O=C(O)c1ccc(S(=O)(=O)N2CCN(c3ccccn3)CC2)cc1
The “hERG current change (%, negative = inhibition) at 1uM” value of the first is higher: 24.2% for the first, 17% for the second.

First: COC(=O)c1cccc(NC(=O)Cn2nnc3ccccc32)c1
Second: O=C(CCn1c(=S)oc2ccccc21)Nc1cccc(F)c1
The “hERG current change (%, negative = inhibition) at 1uM” value of the first is lower: 5.54% for the first, 11% for the second.

Compared with `C=CCn1c(N)cc(=O)nc1SCC(=O)Nc1ccc(C(=O)OC)cc1`, `C=CCN1CN=C(NS(=O)(=O)c2ccc(NC(C)=O)cc2)NC1` is higher in “hERG current change (%, negative = inhibition) at 1uM” value: -9.28% for the first, 9.29% for the second.

First: CCOC(=O)Cc1csc(N/N=C/c2cccc([N+](=O)[O-])c2)n1
Second: CCOC(=O)c1c(-c2ccccc2)cn2c(C)cc(C)nc12
The “hERG current change (%, negative = inhibition) at 1uM” value of the first is higher: 15.7% for the first, 11.3% for the second.

First: O=C(N/N=C/c1ccncc1)c1nn(Cc2ccccc2)c(=O)c2ccccc12
Second: O=C(NCc1ccccc1)C1=C[C@@H](c2csc3ccccc23)C[C@@H](OCCCCO)O1
The “hERG current change (%, negative = inhibition) at 1uM” value of the first is higher: 12.2% for the first, -0.204% for the second.

Going from `N#CCCN(C(=O)CSc1ccc2c(c1)OCCO2)c1ccccc1` to `O=C(CCSc1nnc2ccccn12)Nc1ccc2c(c1)OCO2`, the “hERG current change (%, negative = inhibition) at 1uM” value rises from 5.26% to 13.5%.

First: COCCNC(=O)C1=NOC(Cn2cc(C#N)c(=O)n(C)c2=O)C1 (centres unmarked)
Second: CCCNC(=O)c1onc(CSc2ccc(F)cc2)c1C(=O)NCCOC
The “hERG current change (%, negative = inhibition) at 1uM” value of the first is higher: 18.7% for the first, 8.95% for the second.

Going from `Cc1ccc2c(c1)N(CC(=O)N1CCCCCC1)C(=O)c1cccnc1O2` to `CCOc1cc(C(=O)N(CC)CC(=O)Nc2c(F)cccc2F)ccc1OCC(=O)N1CCCCC1`, the “hERG current change (%, negative = inhibition) at 1uM” value falls from 1.41% to -4.04%.

First: O=C(c1cnn(-c2ccccc2)c1-n1cccc1)N1CCN(C2CCCCC2)CC1
Second: OC(c1ccccc1)(c1ccccc1)C1CCN(C(=S)NC2CCCC2)CC1
The “hERG current change (%, negative = inhibition) at 1uM” value of the first is lower: -29.3% for the first, 13.2% for the second.

Going from `Cc1c(CN2CCC(CO)(Cc3cccc(C(F)(F)F)c3)CC2)c2ccccc2n1C` to `Cc1ccc(S(=O)(=O)c2nc(S(=O)(=O)c3ccccc3)sc2N2CCN(CCO)CC2)cc1`, the “hERG current change (%, negative = inhibition) at 1uM” value rises from -13.5% to 0.609%.

Compared with `C=CCn1c(Cc2c[nH]c3ccccc23)n[nH]c1=S`, `Fc1ccccc1-c1n[nH]c(=S)n1/N=C/c1c[nH]c2ccccc12` is higher in “hERG current change (%, negative = inhibition) at 1uM” value: 9.65% for the first, 14.2% for the second.

First: Cc1cc(C(=O)CN2CCN(CC(=O)Nc3ccc(F)cc3)CC2)c(C)n1C1CC1
Second: O=C(CNC1CCCCC1)Nc1ccc(S(=O)(=O)N2CCCCC2)cc1
The “hERG current change (%, negative = inhibition) at 1uM” value of the first is lower: -72.3% for the first, 6.26% for the second.

Compared with `Cc1ccc(S(=O)(=O)N2CCCCC2C)cc1[N+](=O)[O-]` (centres unmarked), `Cc1ccc(S(=O)(=O)N2CCOCC2)cc1NC(=O)Cn1ccsc1=N.Cl` is lower in “hERG current change (%, negative = inhibition) at 1uM” value: 8.71% for the first, 1.95% for the second.

Going from `COc1ccc(CC(=O)OCC(=O)Nc2c(C)n(C)n(-c3ccccc3)c2=O)cc1` to `COc1cccc(NC(=O)COC(=O)CCC(=O)c2cccs2)c1`, the “hERG current change (%, negative = inhibition) at 1uM” value rises from -1.1% to 5.18%.

Compared with `CCOc1ccccc1NC(=O)COC(=O)c1ccccc1SCC(=O)N1CCCC1`, `CCOc1cc(C2NC(=O)NC(c3ccccc3)=C2C(C)=O)ccc1OCC(N)=O` (centres unmarked) is lower in “hERG current change (%, negative = inhibition) at 1uM” value: 17.8% for the first, -7.7% for the second.

Going from `O/N=C\c1ccc2noc(-c3ccc(Cl)cc3)c2c1` to `COc1ccc(-c2nc(N)ncc2-c2ccc(Cl)cc2)c(O)c1`, the “hERG current change (%, negative = inhibition) at 1uM” value rises from 13.6% to 19%.

First: Cc1ccc(N2C(=O)CSC2c2cccnc2)cc1F (centres unmarked)
Second: COc1ccc(N2C(=O)CSC2c2ccc3c(c2)OCO3)cc1 (centres unmarked)
The “hERG current change (%, negative = inhibition) at 1uM” value of the first is higher: 9.98% for the first, 6.32% for the second.

Compared with `C#CCOCCOCCOCCNc1nc(N2CCN(C(=O)Cn3cc(CCC[NH+]=C(N)N)nn3)CC2)nc(N2CCN(C(=O)[C@H](CCCC[NH3+])n3cc(CCC(=O)O)nn3)CC2)n1.[Cl-]`, `CCC(=O)c1ccc(N2CCN(C(=O)c3cc([N+](=O)[O-])ccc3N3CCN(C)CC3)CC2)c(F)c1` is lower in “hERG current change (%, negative = inhibition) at 1uM” value: 6.78% for the first, -4.16% for the second.

Compared with `CC(C)(C)c1ccc(C(=O)Nc2nnc(Cc3c[nH]c4ccccc34)s2)cc1`, `Cc1ccc(C(C)(C)C)cc1S(=O)(=O)N1CC(=O)Nc2ccccc21` is higher in “hERG current change (%, negative = inhibition) at 1uM” value: 8.76% for the first, 12.7% for the second.

First: Cl.O=C1c2cccc3cccc(c23)C(=O)N1CC1CCN(CC(O)COCc2ccc3c(c2)OCO3)CC1 (centres unmarked)
Second: COc1ccc(C(=O)CN2C(=O)c3ccccc3C2=O)c(OC)c1C
The “hERG current change (%, negative = inhibition) at 1uM” value of the first is lower: -31.1% for the first, 11.3% for the second.

Going from `CC1(C)CC(=O)C(C=Nc2ccc3[nH]ncc3c2)=C(O)C1` to `COc1ccc(Nc2nc(C)cc(=O)[nH]2)c(OC)c1`, the “hERG current change (%, negative = inhibition) at 1uM” value falls from 0.072% to -5.38%.

Compared with `Cc1ccsc1C(=O)NNC(=S)NC1CCCCC1`, `Cn1nnc(NC(=O)COc2ccc(C3CCCCC3)cc2)n1` is lower in “hERG current change (%, negative = inhibition) at 1uM” value: 6.68% for the first, -4.08% for the second.

First: Cc1noc(C)c1-c1ccc2nc[nH]c(=O)c2c1
Second: CC(C)n1c(=O)c2c(O)cc(=O)oc2c2ccccc21
The “hERG current change (%, negative = inhibition) at 1uM” value of the first is lower: 3.53% for the first, 7.9% for the second.

First: Cc1ccc(NC(=O)C(=O)NCc2ccc(/C=N/NC(=O)c3c(C)nc4cc(C)ccn34)o2)cc1
Second: Cc1cccc(S(=O)(=O)N(CC(=O)Nc2ccccc2C)Cc2ccco2)c1
The “hERG current change (%, negative = inhibition) at 1uM” value of the first is lower: -41.6% for the first, -6.86% for the second.

First: CCOc1c(Br)cc(C2NC(=O)CCC2[N+](=O)[O-])cc1OC (centres unmarked)
Second: COc1ccc(/C=C2\SC(=O)NC2=S)cc1OC
The “hERG current change (%, negative = inhibition) at 1uM” value of the first is higher: 8.77% for the first, 0.936% for the second.

Compared with `CCn1c(COc2ccccc2OC)nnc1SCC#N`, `COc1ccc(-c2nnc(SCC(=O)Nc3nncs3)o2)cc1` is higher in “hERG current change (%, negative = inhibition) at 1uM” value: 7.88% for the first, 17% for the second.

First: CCOC(=O)c1c(-c2ccccc2)cn2ccccc12
Second: O=c1c2cc(-c3ccccc3)sc2ncn1/N=C/c1ccco1
The “hERG current change (%, negative = inhibition) at 1uM” value of the first is lower: -8.12% for the first, 15.3% for the second.

First: COc1ccc(CCN2C(=O)N[C@@H](CCC(=O)O)C2=O)cc1
Second: COc1ccc(CCNC(=O)CCNC(=O)N2CC(=O)Nc3ccccc32)cc1OC
The “hERG current change (%, negative = inhibition) at 1uM” value of the first is lower: 15.7% for the first, 21% for the second.

First: Cc1nc2nc(SCC(N)=O)[nH]c2cc1Br
Second: O=C(CSc1nc2ncc(Cl)cc2[nH]1)NCC(=O)Nc1ccc(F)c(F)c1F
The “hERG current change (%, negative = inhibition) at 1uM” value of the first is higher: 15.8% for the first, 5.25% for the second.

Going from `CCOC(=O)/C(=N\Nc1cc(Cl)ccc1Cl)N1CCN(C)CC1` to `CCCCNC(=S)N1CCN(c2ccccc2Cl)CC1`, the “hERG current change (%, negative = inhibition) at 1uM” value rises from 2.01% to 8.55%.

Compared with `CC(=O)O[C@H]1CC[C@@]2(C)C(CCC3C2CC[C@]2(C)OC(=O)CCC32)C1` (some centres unmarked), `O=C(CN(C1CCCCC1)S(=O)(=O)c1ccc(Cl)cc1)N1CCOCC1` is lower in “hERG current change (%, negative = inhibition) at 1uM” value: 5.73% for the first, -34.1% for the second.

Compared with `CC(=O)NCCc1ccc(S(=O)(=O)NC2OC(=O)c3ccccc32)cc1` (centres unmarked), `CC(Sc1nc2ccccc2c(=O)n1CC1CCCO1)C(=O)Nc1ccc(S(N)(=O)=O)cc1` (centres unmarked) is higher in “hERG current change (%, negative = inhibition) at 1uM” value: 2.05% for the first, 3.99% for the second.

Compared with `CCN(CC)C(=O)CNC(=O)Cc1ccc(Cl)cc1`, `O=[N+]([O-])c1ccc(CS(=O)(=O)c2ccc(Cl)cc2)cc1` is higher in “hERG current change (%, negative = inhibition) at 1uM” value: -15% for the first, 4.47% for the second.

First: Cc1nn(Cc2ccccc2Cl)c(C)c1C(=O)OCC(=O)N1CC(C)OC(C)C1 (centres unmarked)
Second: Cc1noc(C)c1CSCC(=O)N(C)CC(=O)Nc1ccc(Cl)c(C(F)(F)F)c1
The “hERG current change (%, negative = inhibition) at 1uM” value of the first is higher: 16.1% for the first, -7.81% for the second.

First: COc1cccc(NC(=O)c2cccnc2)c1
Second: Cc1cccc(CC(=O)Nc2ccon2)c1
The “hERG current change (%, negative = inhibition) at 1uM” value of the first is lower: 10.9% for the first, 12.8% for the second.

Compared with `Clc1ccc(OCCSc2ncccn2)c2ccccc12`, `Cc1ccccc1Nc1cc(=O)oc2ccccc12` is lower in “hERG current change (%, negative = inhibition) at 1uM” value: 19.8% for the first, 2.3% for the second.

Compared with `O=C(NCC1CCCO1)c1ccc2c(=O)n(-c3ccc(F)cc3)c(=S)[nH]c2c1` (centres unmarked), `CCN(CC)S(=O)(=O)c1cc(NC(=O)Cc2n[nH]c(=O)c3ccccc23)ccc1C` is higher in “hERG current change (%, negative = inhibition) at 1uM” value: 2.97% for the first, 11.6% for the second.

Compared with `O=C(CSc1nncn1-c1cccnc1)Nc1ccccc1C(F)(F)F`, `CSCCC(NC(=O)OCc1ccccc1)C(=O)NCc1cccnc1` (centres unmarked) is higher in “hERG current change (%, negative = inhibition) at 1uM” value: 1.88% for the first, 9.52% for the second.

First: COc1ccc(C(=O)Cn2cc[n+](C)c2)cc1.[Br-]
Second: COc1ccc(Cn2nnnc2C(c2cccs2)N2CCN(c3ccc([N+](=O)[O-])cc3)CC2)cc1 (centres unmarked)
The “hERG current change (%, negative = inhibition) at 1uM” value of the first is lower: 8.31% for the first, 10.5% for the second.

Going from `Cc1ccc(S(=O)(=O)NCCC(=O)O)cc1` to `CCN(CCNS(=O)(=O)c1ccc2[nH]c(=O)sc2c1)c1ccccc1`, the “hERG current change (%, negative = inhibition) at 1uM” value falls from 10.1% to -1.68%.

Compared with `CC1=C(C(=O)Nc2ccccc2)C(c2ccco2)n2ncnc2N1` (centres unmarked), `O=C(O)c1cccc(S(=O)(=O)N2CCN(c3ccccn3)CC2)c1` is higher in “hERG current change (%, negative = inhibition) at 1uM” value: 12.9% for the first, 13.4% for the second.

Going from `S=c1nc(C2CC2)[nH]c2ccccc12` to `Cl.c1ccc(-c2csc(N3CCOCC3)n2)cc1`, the “hERG current change (%, negative = inhibition) at 1uM” value rises from 1.25% to 9.81%.

Compared with `Cn1cc(CC(=O)NCCCN2CCOCC2)c2ccccc21`, `CCC(c1nnnn1CCOC)N1CCN(c2nc3ccccc3s2)CC1` (centres unmarked) is lower in “hERG current change (%, negative = inhibition) at 1uM” value: 15.6% for the first, -0.352% for the second.

`O=C(C/C(=N/O)c1ccccc1O)C(F)F` was tested, and the “hERG current change (%, negative = inhibition) at 1uM” value was 9.32%.
